Laboratory results as given in article PMC5207708.
These are yes or no findings as the source states them, for the method shown. In cells and extracts the contact can be indirect. Some binding calls cover weakened binding; strength is not graded here.

Amino acid sequences for entries named in this document (tags omitted). A change or cut given only in a name is not applied to a line headed by its entry. Chains listed by the source or under a name are the forms on record and can include a tag or linker.
UniProt Q13330: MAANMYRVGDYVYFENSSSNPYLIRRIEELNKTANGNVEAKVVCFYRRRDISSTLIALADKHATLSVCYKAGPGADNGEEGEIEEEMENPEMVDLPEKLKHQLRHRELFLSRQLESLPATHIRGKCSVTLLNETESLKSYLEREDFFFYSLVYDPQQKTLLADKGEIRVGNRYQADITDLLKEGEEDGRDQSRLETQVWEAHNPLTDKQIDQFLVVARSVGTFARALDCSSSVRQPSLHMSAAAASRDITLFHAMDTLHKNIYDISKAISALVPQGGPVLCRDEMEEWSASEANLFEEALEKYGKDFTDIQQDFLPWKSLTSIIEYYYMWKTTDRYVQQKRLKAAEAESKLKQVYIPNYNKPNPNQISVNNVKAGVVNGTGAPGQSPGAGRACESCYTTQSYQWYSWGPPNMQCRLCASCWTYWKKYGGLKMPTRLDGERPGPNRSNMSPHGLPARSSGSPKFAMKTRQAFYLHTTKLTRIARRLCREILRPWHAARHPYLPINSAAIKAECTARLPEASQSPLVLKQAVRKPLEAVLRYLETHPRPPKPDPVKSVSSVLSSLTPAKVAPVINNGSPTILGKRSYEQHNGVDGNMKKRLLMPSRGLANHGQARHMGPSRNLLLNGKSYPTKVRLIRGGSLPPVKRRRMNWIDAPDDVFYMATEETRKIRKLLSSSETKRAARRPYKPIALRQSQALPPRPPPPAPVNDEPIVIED
UniProt Q7Z3K6: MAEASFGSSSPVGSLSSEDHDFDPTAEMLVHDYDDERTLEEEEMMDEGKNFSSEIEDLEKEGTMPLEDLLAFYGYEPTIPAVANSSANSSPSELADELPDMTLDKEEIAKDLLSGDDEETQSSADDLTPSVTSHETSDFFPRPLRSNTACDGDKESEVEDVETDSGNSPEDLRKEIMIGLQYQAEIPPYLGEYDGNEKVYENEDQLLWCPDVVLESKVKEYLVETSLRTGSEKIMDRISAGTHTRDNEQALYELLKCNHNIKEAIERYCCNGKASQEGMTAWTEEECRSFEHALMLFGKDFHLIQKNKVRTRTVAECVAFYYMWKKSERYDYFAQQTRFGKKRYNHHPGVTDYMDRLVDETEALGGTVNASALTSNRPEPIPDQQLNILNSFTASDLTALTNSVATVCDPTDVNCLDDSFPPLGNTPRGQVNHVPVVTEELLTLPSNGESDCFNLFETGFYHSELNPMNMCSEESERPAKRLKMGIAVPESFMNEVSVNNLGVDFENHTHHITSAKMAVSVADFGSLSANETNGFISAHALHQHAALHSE
MIER3 isoform 3 (Q7Z3K6, form named): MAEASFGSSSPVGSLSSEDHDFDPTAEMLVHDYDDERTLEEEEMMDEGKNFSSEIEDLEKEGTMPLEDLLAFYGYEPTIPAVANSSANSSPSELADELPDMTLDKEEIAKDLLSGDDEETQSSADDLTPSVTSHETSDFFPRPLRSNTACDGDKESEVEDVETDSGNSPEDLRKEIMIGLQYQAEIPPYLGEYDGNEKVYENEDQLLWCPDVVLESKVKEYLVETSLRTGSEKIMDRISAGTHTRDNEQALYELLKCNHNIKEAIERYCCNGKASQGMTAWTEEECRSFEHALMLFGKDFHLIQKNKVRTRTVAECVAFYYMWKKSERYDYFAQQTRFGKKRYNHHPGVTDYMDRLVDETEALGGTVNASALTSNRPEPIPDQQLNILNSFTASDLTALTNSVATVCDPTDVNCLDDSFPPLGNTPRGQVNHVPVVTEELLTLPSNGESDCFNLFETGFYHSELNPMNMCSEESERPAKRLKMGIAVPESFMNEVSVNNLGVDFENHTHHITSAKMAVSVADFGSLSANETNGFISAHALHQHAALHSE
UniProt Q13547: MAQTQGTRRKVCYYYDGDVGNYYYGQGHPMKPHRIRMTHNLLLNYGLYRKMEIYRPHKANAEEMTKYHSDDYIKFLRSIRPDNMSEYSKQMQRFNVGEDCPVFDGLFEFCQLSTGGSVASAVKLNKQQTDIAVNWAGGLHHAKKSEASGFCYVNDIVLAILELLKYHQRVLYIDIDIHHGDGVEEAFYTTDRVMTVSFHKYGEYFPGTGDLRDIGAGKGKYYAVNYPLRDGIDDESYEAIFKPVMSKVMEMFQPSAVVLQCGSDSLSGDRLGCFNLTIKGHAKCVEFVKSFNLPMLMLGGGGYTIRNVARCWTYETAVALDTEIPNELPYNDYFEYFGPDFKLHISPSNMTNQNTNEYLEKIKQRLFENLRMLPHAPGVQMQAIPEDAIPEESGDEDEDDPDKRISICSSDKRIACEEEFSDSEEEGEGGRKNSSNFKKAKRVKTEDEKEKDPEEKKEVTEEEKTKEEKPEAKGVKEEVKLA
UniProt Q92769: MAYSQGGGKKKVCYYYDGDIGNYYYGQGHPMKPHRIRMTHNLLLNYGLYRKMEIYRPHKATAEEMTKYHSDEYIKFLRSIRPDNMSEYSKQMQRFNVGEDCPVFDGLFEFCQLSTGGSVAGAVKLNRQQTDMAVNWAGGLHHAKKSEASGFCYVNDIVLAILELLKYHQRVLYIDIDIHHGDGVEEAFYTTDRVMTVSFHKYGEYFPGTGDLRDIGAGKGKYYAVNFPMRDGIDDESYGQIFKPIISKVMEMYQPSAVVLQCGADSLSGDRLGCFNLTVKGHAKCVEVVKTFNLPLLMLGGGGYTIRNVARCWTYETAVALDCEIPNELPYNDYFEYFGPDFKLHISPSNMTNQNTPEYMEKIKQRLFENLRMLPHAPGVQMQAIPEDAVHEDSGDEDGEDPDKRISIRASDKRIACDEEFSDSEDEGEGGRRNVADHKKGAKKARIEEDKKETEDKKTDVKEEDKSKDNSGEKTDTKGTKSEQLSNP

T1: MIER2 (UniProt Q8N344)
T1 sequence: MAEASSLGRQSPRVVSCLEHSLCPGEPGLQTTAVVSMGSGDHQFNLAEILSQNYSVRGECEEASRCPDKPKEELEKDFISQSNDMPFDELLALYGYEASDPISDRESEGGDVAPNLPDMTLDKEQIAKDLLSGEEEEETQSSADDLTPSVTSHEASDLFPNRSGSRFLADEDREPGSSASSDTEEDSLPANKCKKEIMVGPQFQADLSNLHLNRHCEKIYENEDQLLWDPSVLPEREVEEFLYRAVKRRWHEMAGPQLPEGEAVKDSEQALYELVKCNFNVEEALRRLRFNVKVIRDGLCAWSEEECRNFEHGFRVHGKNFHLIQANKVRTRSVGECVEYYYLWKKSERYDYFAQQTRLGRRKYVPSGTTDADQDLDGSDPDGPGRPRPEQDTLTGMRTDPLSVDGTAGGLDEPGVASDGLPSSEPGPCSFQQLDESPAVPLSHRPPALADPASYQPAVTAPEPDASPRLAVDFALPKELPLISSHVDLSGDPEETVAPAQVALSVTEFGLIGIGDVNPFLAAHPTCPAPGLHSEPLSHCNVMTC

T2: MIER2-Δ4 (UniProt Q8N344)
T2 sequence: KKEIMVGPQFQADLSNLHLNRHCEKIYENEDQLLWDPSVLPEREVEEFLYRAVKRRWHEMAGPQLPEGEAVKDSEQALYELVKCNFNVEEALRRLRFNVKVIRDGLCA

T3: MIER2-Δ1 (UniProt Q8N344)
T3 sequence: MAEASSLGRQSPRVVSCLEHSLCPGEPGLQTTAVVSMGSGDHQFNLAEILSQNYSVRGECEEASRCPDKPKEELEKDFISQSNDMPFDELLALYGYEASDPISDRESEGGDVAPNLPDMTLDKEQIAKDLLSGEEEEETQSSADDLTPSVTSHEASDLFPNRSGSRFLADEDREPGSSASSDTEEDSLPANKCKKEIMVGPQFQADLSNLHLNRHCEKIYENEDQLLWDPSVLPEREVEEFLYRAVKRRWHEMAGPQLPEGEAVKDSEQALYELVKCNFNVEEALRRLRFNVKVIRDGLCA

T4: MIER2 containing a point mutation 228W→A in the ELM2 domain (UniProt Q8N344)
T4 sequence: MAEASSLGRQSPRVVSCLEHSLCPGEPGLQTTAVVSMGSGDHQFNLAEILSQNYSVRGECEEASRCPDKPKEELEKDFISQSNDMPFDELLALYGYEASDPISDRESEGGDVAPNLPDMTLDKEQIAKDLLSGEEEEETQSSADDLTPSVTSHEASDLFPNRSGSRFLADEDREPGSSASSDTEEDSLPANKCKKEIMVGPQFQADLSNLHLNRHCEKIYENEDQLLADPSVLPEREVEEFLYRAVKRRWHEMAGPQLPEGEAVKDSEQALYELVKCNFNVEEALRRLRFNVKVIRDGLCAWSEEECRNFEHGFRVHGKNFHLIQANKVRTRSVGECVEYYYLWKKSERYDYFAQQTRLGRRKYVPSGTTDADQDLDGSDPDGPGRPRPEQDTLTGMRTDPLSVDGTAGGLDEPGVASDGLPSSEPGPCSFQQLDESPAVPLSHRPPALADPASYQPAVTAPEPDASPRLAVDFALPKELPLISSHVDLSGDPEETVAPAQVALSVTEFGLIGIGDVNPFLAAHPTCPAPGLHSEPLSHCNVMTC

T5: MIER2-Δ3 (UniProt Q8N344)
T5 sequence: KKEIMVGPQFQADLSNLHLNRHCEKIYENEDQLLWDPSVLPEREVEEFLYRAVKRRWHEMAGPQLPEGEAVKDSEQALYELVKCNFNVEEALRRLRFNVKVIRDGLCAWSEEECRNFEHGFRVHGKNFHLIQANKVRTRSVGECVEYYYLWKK

T6: MIER2-Δ2 (UniProt Q8N344)
T6 sequence: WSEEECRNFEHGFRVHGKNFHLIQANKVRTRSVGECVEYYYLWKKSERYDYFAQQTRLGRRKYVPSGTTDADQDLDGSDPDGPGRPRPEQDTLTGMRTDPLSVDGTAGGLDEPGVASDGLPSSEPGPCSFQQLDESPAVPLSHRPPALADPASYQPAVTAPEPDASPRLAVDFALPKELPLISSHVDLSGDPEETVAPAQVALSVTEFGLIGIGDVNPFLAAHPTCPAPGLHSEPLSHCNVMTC


Experiments:
MIER2 [1] = target: T1, MIER2; test: co-IP; HeLa cells transfected with the myc-tagged protein; IP with 9E10 anti-myc; endogenous HDAC1 and HDAC2 by Western
MIER2-Δ4 = target: T2, MIER2-Δ4; test: co-IP; HEK293 cells transfected with the myc-tagged protein; lysis in 1% Triton X-100, 150 mM NaCl, 20 mM Tris-Cl pH 7.5, 1 mM EDTA; IP with 9E10 anti-myc overnight at 4°C; endogenous HDAC1 and HDAC2 by Western; band densitometry (HDAC:MIER ratio); also with or without 12.5 μM Ins(1,4,5,6)P4 during the IP (no substantial difference)
MTA1 = MTA1 (UniProt Q13330); test: as above
MIER2-Δ1 = target: T3, MIER2-Δ1; test: as above
[2] = target: T4, MIER2 containing a point mutation 228W→A in the ELM2 domain; test: as above
MIER3 isoform 3 = MIER3 isoform 3 (UniProt Q7Z3K6); test: as above
MIER2-Δ3 = target: T5, MIER2-Δ3; test: as above
MIER2-Δ2 = target: T6, MIER2-Δ2; test: as above
MIER2 [3] = target: T1, MIER2; test: co-IP; MCF7 cells transfected (electroporation) with the myc-tagged protein; IP with 9E10 anti-myc; endogenous HDAC1 and HDAC2 by Western; band densitometry
MIER2 [4] = target: T1, MIER2; test: co-IP; HEK293 cells co-transfected with a myc-tagged and a flag-tagged protein; lysis in 1% Triton X-100, 150 mM NaCl, 20 mM Tris-Cl pH 7.5, 1 mM EDTA; IP with 9E10 anti-myc overnight at 4°C; Western with anti-flag
MIER3 isoform 1 = MIER3 isoform 1 (UniProt Q7Z3K6); test: as above

Row | Molecule | binding (MIER2 [1]) | binding (MIER2-Δ4) | binding (MTA1) | binding (MIER2-Δ1) | binding [2] | binding (MIER3 isoform 3) | binding (MIER2-Δ3) | binding (MIER2-Δ2) | binding (MIER2 [3]) | binding (MIER2 [4]) | binding (MIER3 isoform 1)
1 | HDAC1 (from UniProt Q13547 1-482) (enzyme) | binds | binds | binds | binds | no binding | binds weakly | binds | no binding | binds |  | 
2 | MIER3 isoform 1 (from UniProt Q7Z3K6-1 1-550) |  |  |  |  |  |  |  |  |  | no binding | no binding
3 | HDAC2 (from UniProt Q92769 1-488) (enzyme) |  | binds | binds | binds | no binding | binds weakly | binds | no binding |  |  | 
4 | MIER2 (protein, UniProt Q8N344 1-545) MAEASSLGRQSPRVVSCLEHSLCPGEPGLQTTAVVSMGSGDHQFNLAEILSQNYSVRGECEEASRCPDKPKEELEKDFISQSNDMPFDELLALYGYEASDPISDRESEGGDVAPNLPDMTLDKEQIAKDLLSGEEEEETQSSADDLTPSVTSHEASDLFPNRSGSRFLADEDREPGSSASSDTEEDSLPANKCKKEIMVGPQFQADLSNLHLNRHCEKIYENEDQLLWDPSVLPEREVEEFLYRAVKRRWHEMAGPQLPEGEAVKDSEQALYELVKCNFNVEEALRRLRFNVKVIRDGLCAWSEEECRNFEHGFRVHGKNFHLIQANKVRTRSVGECVEYYYLWKKSERYDYFAQQTRLGRRKYVPSGTTDADQDLDGSDPDGPGRPRPEQDTLTGMRTDPLSVDGTAGGLDEPGVASDGLPSSEPGPCSFQQLDESPAVPLSHRPPALADPASYQPAVTAPEPDASPRLAVDFALPKELPLISSHVDLSGDPEETVAPAQVALSVTEFGLIGIGDVNPFLAAHPTCPAPGLHSEPLSHCNVMTC |  |  |  |  |  |  |  |  |  | no binding | no binding
